# Data as given in paper PMC4336329 (PLoS ONE, 2015).
# Among all 310,000 compounds or so, about 2,200 (0.71%) showed an effect of 50% or more. Effects have a minus sign here. The list shows a part of the results.
# Biological target: human ether-à-go-go-related gene (hERG) potassium channel (human, UniProt Q12809)
# Experiment: primary screen, population patch clamp on CHO cells stably expressing hERG
# human ether-à-go-go-related gene (hERG) potassium channel, sequence (Q12809 whole entry, looked up): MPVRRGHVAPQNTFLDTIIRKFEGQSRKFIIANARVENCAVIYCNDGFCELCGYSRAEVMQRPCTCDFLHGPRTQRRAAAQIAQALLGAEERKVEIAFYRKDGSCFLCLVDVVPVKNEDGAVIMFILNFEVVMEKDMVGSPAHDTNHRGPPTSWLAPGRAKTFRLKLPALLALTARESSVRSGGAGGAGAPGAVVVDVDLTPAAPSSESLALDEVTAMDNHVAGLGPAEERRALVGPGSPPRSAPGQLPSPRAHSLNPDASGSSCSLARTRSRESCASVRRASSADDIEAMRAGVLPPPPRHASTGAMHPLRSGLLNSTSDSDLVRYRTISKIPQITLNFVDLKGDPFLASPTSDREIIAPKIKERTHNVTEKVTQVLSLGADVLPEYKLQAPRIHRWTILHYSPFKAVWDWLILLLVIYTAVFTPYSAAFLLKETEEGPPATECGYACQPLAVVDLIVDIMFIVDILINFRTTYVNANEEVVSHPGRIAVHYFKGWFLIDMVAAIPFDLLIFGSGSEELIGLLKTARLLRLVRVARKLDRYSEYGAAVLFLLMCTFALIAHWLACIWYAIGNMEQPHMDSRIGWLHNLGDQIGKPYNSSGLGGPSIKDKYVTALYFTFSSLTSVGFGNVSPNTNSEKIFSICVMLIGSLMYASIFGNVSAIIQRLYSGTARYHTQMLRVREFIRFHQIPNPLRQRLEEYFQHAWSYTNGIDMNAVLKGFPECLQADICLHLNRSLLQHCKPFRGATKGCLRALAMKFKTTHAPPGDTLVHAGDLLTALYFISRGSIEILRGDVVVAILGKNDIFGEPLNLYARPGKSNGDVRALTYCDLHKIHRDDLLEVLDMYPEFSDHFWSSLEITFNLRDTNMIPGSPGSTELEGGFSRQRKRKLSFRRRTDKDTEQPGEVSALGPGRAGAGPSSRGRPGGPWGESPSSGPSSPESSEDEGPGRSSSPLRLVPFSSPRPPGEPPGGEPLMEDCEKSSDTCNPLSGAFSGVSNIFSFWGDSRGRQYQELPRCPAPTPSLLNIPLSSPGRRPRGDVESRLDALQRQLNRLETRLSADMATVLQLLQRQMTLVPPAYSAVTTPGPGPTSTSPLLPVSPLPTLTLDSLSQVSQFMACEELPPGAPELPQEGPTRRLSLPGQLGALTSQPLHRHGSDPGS
row,SMILES,"hERG current change (%, negative = inhibition) at 1uM [%]"
1,COc1cccc(NC(=O)CCC(=O)Nc2ccc3nc(N4CCOCC4)cc(C)c3c2)c1,19.1
2,O=C(O)/C=C/c1cn(Cc2ccccc2Cl)nc1-c1ccccc1,12.5
3,NNc1nc2c(-c3ccc(F)cc3)nnn2c2ccccc12,11.5
4,CC1(C)CCCC(C)(C)N1CC(O)COCCOc1ccc(Br)cc1.Cl (centres unmarked),-12.2
5,CCNC(=S)N/N=C/c1cc(Br)cc(Br)c1OC,6.52
6,Cn1c(SCc2nnc(-c3ccccc3)o2)nc2ccccc21,14.8
7,Cc1cccc(N2CCN(Cc3ccc([N+](=O)[O-])o3)CC2)c1C,11.3
8,CC(=O)Nc1ccc(-c2cc(-c3ccc(NC(C)=O)cc3)nc(-c3ccc(NC(C)=O)cc3)n2)cc1,11.9
9,O=C(NCc1ccco1)c1noc2c1CCCC2,5.58
10,COc1ccc(NC(=O)COC(=O)c2ccc([N+](=O)[O-])o2)cc1Cl,13.9
11,Cc1ccc(C)c(N2CCN(C(=S)Nc3ccc4nc(N5CCOCC5)cc(C)c4c3)CC2)c1,-5.44
12,Cc1cc(N(C)C)ccc1N=Nc1ccc2ncccc2c1,12.5
13,O=C(O)C(Oc1ccc2cc(-c3ccc(Cl)cc3)c(=O)oc2c1)c1ccccc1 (centres unmarked),14
14,Cn1ncc(Cl)c1C(=O)Nc1nc2ccc(Cl)cc2s1,4.66
15,COc1cc(C(=O)OCC(=O)c2cc(C)n(CC3CCCO3)c2C)cc(OC)c1C (centres unmarked),-1.68
16,O=c1nc(-c2ccccc2)cc(-c2ccccc2)[nH]1,4.15
17,COC(=O)C1=C(c2ccc(OC(F)(F)F)cc2)C[C@@H]2CC[C@H]1N2C(=O)NCCCOC(C)C,2.87
18,CCCCN(C)CCC(=O)Nc1ccc2c(c1)CCC2.Cl,10.2
19,CCCc1c(O)nc(SCC(=O)NCc2ccco2)[nH]c1=O,14.5
20,COCCNC(=S)N1C2CCC1CC(NC(=O)NC13CC4CC(CC(C4)C1)C3)C2 (centres unmarked),4.19
21,O=C(NNC(=O)c1sccc1-n1cccc1)Nc1ccc(F)cc1,5.42
22,CC(=O)c1ccc(S(=O)(=O)N(CCCO)Cc2cc3cc4c(cc3[nH]c2=O)OCCO4)cc1,15.8

row,SMILES,"hERG current change (%, negative = inhibition) at 1uM [%]"
1,COCCCn1c(=NC(=O)c2ccccc2)c(C#N)cc2c(=O)n3cccc(C)c3nc21,-49
2,COC(=O)Nc1ncc(CN2CCC(c3ccccc3)CC2)s1,-9.17
3,COc1ccc2ccccc2c1C1CC(=O)N2CN(C3CCCCC3)CSC2=C1C#N (centres unmarked),18.5
4,O=C1CN(c2ccccc2)C(=S)N1c1ccccc1.[Na+],10.1
5,CC(Sc1nnc(-c2ccc(C(C)(C)C)cc2)n1C)C(N)=O (centres unmarked),14.8
6,CCNC(=S)NNC(=O)Cn1nc(C)cc1C,0.389
7,c1ccc(-c2cnnc(N3CCCCC3)n2)cc1,-5.79
8,Cc1ccccc1NS(=O)(=O)c1ccc(C(=O)NCCCN2CCCC2=O)cc1,8.15
9,NNC(=O)c1cc(C2CC2)nc2ccc(Br)cc12,10.5
10,COc1cc(-c2nc3n(n2)C(c2ccncc2)C2=C(CCCC2=O)N3)cc(OC)c1OC (centres unmarked),26
11,CCNC(=O)NC(=O)C(C)OC(=O)CNS(=O)(=O)c1c(Cl)cc(Br)cc1Cl (centres unmarked),9.18
12,Cc1ccc(-c2nn(-c3ccc(F)cc3)cc2C(=O)NCC(c2cccs2)N2CCOCC2)cc1 (centres unmarked),5.75
13,Cc1ccccc1C(=O)NC(=S)N(CCO)Cc1ccccc1,11.7
14,O=C(/C=C/c1cccs1)N1CCC2(CC1)Oc1ccc(Cl)cc1C(=O)C21CC(c2ccc(Cl)cc2)=NO1 (centres unmarked),11.9
15,O=C(COC(=O)c1ccccc1Cc1ccccc1)Nc1ccc(SC(F)F)cc1,4.53
16,CCNS(=O)(=O)c1ccc(S(=O)(=O)N(Cc2ccccn2)C2CCCCC2)cc1,13.4
17,O=C(NN1C(=O)NC2(CCCCC2)C1=O)c1ccc(-c2ccccc2Cl)o1,1.11
18,O=C1C=C(c2ccc(Br)c3ccccc23)C[C@@H](c2ccc3c(c2)OCO3)C1,0.659
19,COc1cc2[nH]c(=O)n(CCC(=O)NC3CCCC3)c(=O)c2cc1OC,11.2
20,Cc1ccc2nc(-c3cccc(Br)c3)cc(C(=O)NC3CC3)c2c1,18.5
21,CN(C(=O)c1cccc(Br)c1)C1CCS(=O)(=O)C1 (centres unmarked),10.5
22,O=[N+]([O-])c1ccc2c(c1)[nH]c(=S)n2-c1ccccc1,8.39
